# Structures can show the parent of a compound that is named as a salt. The list shows a part of the results.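 Rule for the calls: active = more than 2 SD below the DMSO mean: under 0.85 at 10 µM or 0.885 at 1 µM; inactive = the rest.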 Most values come without repeats; read them as rough.
# Tested on: RPE1
# Experiment: nucleolar normality score relative to DMSO (fraction of DMSO control); RPE1 is a non-cancer human cell line; higher = more normal nucleoli (less nucleolar stress)
# Conditions: 24 h
# 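Note: fixed cells immunolabelled for nucleolin and UBF, 40 image fields per well in 384-well plates, per-cell score = nucleolin nucleolar/nucleoplasm intensity ratio divided by the matching UBF ratio.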
Structure (SMILES),nucleolar normality score (1 µM),nucleolar normality score (10 µM)
CCC(C)C(NC(=O)CNC(=O)C(CC(=O)O)NC(=O)C(CO)NC(=O)C(N)Cc1cnc[nH]1)C(=O)NC(Cc1ccccc1)C(=O)NC(C(=O)NC(CC(=O)O)C(=O)NC(CO)C(=O)NC(Cc1ccc(O)cc1)C(=O)NC(CO)C(=O)NC(CCCNC(=N)N)C(=O)NC(Cc1ccc(O)cc1)C(=O)NC(CCCNC(=N)N)C(=O)NC(CCCCN)C(=O)NC(CCC(N)=O)C(=O)NC(CCSC)C(=O)NC(C)C(=O)NC(C(=O)NC(CCCCN)C(=O)NC(CCCCN)C(=O)C(=O)C(Cc1ccc(O)cc1)NC(=O)C(CC(C)C)NC(=O)C(C)NC(=O)C(C)NC(=O)C(NC(=O)C(CC(C)C)NC(=O)CNC(=O)C(CCCCN)NC(=O)C(CCCNC(=N)N)NC(=O)C(Cc1ccc(O)cc1)NC(=O)C(CCCCN)NC(=O)C(CCC(N)=O)NC(=O)C(CCCNC(=N)N)NC(=O)C(NC(=O)C(CCCCN)NC(=O)C(CC(N)=O)NC(=O)C(CCCCN)NN)C(C)C)C(C)C)C(C)C)C(C)O (centres undefined),inactive: 1,inactive: 1.05
Cc1ccccc1CN1C2=NCCN2C(=O)C2=C1CCN(Cc1ccccc1)C2 [TIC10 Analogue],inactive: 0.997,inactive: 1.04
CC[C@H](C)C(=O)O[C@H]1CCC=C2C=C[C@H](C)[C@H](CC[C@@H]3C[C@@H](O)CC(=O)O3)[C@H]21 [Mevastatin],inactive: 1.01,active: 0.849
CS(=O)(=O)N1CCc2c(-c3cnc(N)nc3)nc(N3CCOCC3)nc21,active: 0.746,active: 0.62
CC(=O)[C@]1(O)Cc2c(O)c3c(c(O)c2[C@@H](O[C@H]2C[C@H](N)[C@H](O)[C@H](C)O2)C1)C(=O)c1ccccc1C3=O [Idarubicin HCl],active: 0.569,active: 0.372
c1ccc(CNc2nc(NCc3ccccc3)c3ccccc3n2)cc1,inactive: 1.02,inactive: 1.06
CCCOc1ccn2c(C(C)=O)cc(-c3ccccc3S(C)(=O)=O)c2c1,inactive: 0.994,inactive: 1.1
Cc1nc(=O)c2cc(CN(C)c3ccc(C(=O)N[C@@H](CCC(=O)O)C(=O)O)s3)ccc2[nH]1 [Raltitrexed],inactive: 1,inactive: 0.997
COCC[n+]1c2c(n(Cc3cnccn3)c1C)C(=O)c1ccccc1C2=O [YM155 (Sepantronium Bromide)],active: 0.35,active: 0.386
O=C(NCCO)c1cccc(-c2cc(Nc3ccc(OC(F)(F)F)cc3)ncn2)c1,inactive: 1,inactive: 1.01
COC(=O)C1=CC[C@@]23CC[C@@H]([C@@](C)(/C=C/C=C(\C)C(=O)O)OC2=O)[C@@]3(OC(C)=O)CC1 [Pseudolaric Acid B],inactive: 1.03,inactive: 1.03
Cc1cc2c(F)c(Oc3ncnn4cc(OC[C@@H](C)OC(=O)[C@H](C)N)c(C)c34)ccc2[nH]1,inactive: 1.03,inactive: 1.13
O=c1[nH]c(=O)n(C2CCCO2)cc1F (centres undefined),inactive: 1.07,inactive: 1.06
CCOC(=O)Nc1cc(-c2ccc(C)c(NS(C)(=O)=O)c2)nn2c(C)nnc12 [Bromosporine],inactive: 0.964,inactive: 1.05
COc1cc2c3cc1Oc1c(OC)c(OC)cc4c1[C@@H](Cc1ccc(O)c(c1)Oc1ccc(cc1)C[C@@H]3N(C)CC2)N(C)CC4 [Berbamine (dihydrochloride)],inactive: 0.988,inactive: 1
C#CC[C@H](c1nc2cc(Cl)ccc2c(=O)n1Nc1ccccc1)N(CCCN)C(=O)c1cccc(Cl)c1F,inactive: 0.988,inactive: 0.86
C[C@@H]1CCN(C(=O)CC#N)C[C@@H]1N(C)c1ncnc2[nH]ccc12,inactive: 0.968,inactive: 0.867
Cc1cc(Nc2ncnc3ccc(-c4ccc(CNCCS(C)(=O)=O)o4)cc23)ccc1Oc1ccn2ncnc2c1 [HER2-Inhibitor-1],inactive: 1,inactive: 0.903
Cc1cc(/N=N/c2ccc(S(=O)(=O)Nc3ccccn3)cc2)c(N)cc1O,inactive: 0.977,inactive: 0.985
COc1cc(O)c(CC=C(C)C)c(O)c1C(=O)/C=C/c1ccc(O)cc1 [Xanthohumol],inactive: 0.968,inactive: 1.03
CO[C@@]12[C@H](COC(N)=O)C3=C(C(=O)C(C)=C(N)C3=O)N1C[C@@H]1N[C@@H]12 [Mitomycin C],inactive: 0.942,inactive: 0.917
CCCN(CCC)C(=O)C1=Cc2ccc(-c3ccc(C(=O)N4CCCC4)cc3)cc2N=C(N)C1 [Motolimod (VTX-2337)],inactive: 0.942,inactive: 0.996
O=C1Nc2ccc(I)cc2C1=Cc1cc(Br)c(O)c(Br)c1,inactive: 0.986,inactive: 0.863
CN(C)CCOc1ccc(/C(=C(/CCCl)c2ccccc2)c2ccccc2)cc1 [Toremifene Citrate],inactive: 1.03,inactive: 1.06

Structure (SMILES),nucleolar normality score (1 µM),nucleolar normality score (10 µM)
"CNC(=O)[C@H](Cc1c[nH]c2ccccc12)NC(=O)[C@@H](CC(=O)NO)CC(C)C [Ilomastat (GM6001, Galardin)]",inactive: 0.91,inactive: 0.928
COC(=O)CNC(=O)C(=O)OC,inactive: 1.04,inactive: 1.1
CNC(=O)c1cc(COc2nnc(Nc3ccc(Cl)cc3)c3ccoc23)ccn1 [Telatinib],inactive: 1.06,inactive: 1.14
COc1cc2nccc(Oc3ccc(NC(=O)C4(C(=O)Nc5ccc(F)cc5)CC4)cc3)c2cc1OC [Cabozantinib malate (XL184)],inactive: 1.05,inactive: 0.94
Cc1cc([C@@H](C)Nc2ccccc2C(=O)O)c2nc(N3CCOCC3)cc(=O)n2c1,inactive: 0.965,inactive: 1.05
Cc1cc(C)cc(C(=O)NOCCCCCC(=O)NO)c1,inactive: 1,inactive: 0.96
CC1(C)O[C@@H]2C[C@H]3[C@@H]4CCC5=CC(=O)C=C[C@]5(C)[C@@]4(F)[C@@H](O)C[C@]3(C)[C@]2(C(=O)CO)O1 [Triamcinolone Acetonide],inactive: 1.02,inactive: 1.06
O=C(O)CCCc1ccccc1 [Sodium Phenylbutyrate],inactive: 1.07,inactive: 1.08
CC(C)Oc1ccc(C(=O)N[C@H](CNC(=O)CN(C)C)Cc2ccc(-c3cn4cccc([C@H](C)O)c4n3)cc2)cc1Cl,active: 0.781,active: 0.64
CC1(C)OCCn2c1nc1c(N3CCOCC3)nc(-c3cnc(N)nc3)nc12,active: 0.884,active: 0.713
C[C@@H]1C[C@H]2[C@@H]3CCC4=CC(=O)C=C[C@]4(C)[C@@]3(F)[C@@H](O)C[C@]2(C)[C@@]1(O)C(=O)CO [Dexamethasone (DHAP)],inactive: 0.978,inactive: 1
CN(C(=O)CNC(=O)/C=C/c1cccc(Cl)c1)C1CCS(=O)(=O)CC1,inactive: 0.937,inactive: 0.984
FC(F)c1nc2ccccc2n1-c1nc(N2CCOCC2)nc(N2CCOCC2)n1,inactive: 1.01,inactive: 0.981
COc1ccccc1S(=O)(=O)Nc1ccc2c(c1)CN(C)C(=O)N2,inactive: 1.03,inactive: 1.09
CNC(=O)c1cnn(-c2nc(N)c3ncn([C@@H]4O[C@H](CO)[C@@H](O)[C@H]4O)c3n2)c1 [Regadenoson],inactive: 1,inactive: 0.947
C=CC(=O)Nc1ccc2ncnc(Nc3cccc(Br)c3)c2c1,inactive: 1.04,inactive: 0.878
CN1CCN(CCOc2cc(OC3CCOCC3)c3c(Nc4c(Cl)ccc5c4OCO5)ncnc3c2)CC1 [Saracatinib (AZD0530)],inactive: 0.929,inactive: 0.979
COc1nnc2ccc(N3CCC(c4ccc(OCCN5CCN(C)C(=O)[C@H]5C)cc4)CC3)nn12,inactive: 0.956,inactive: 0.909
CCN=C1N[C@@H]2[C@@H](O)[C@H](O)[C@@H](CO)O[C@@H]2S1 [Thiamet G],inactive: 0.938,inactive: 1.03
O=C(NOC[C@H](O)CO)c1ccc(F)c(F)c1Nc1ccc(I)cc1F,inactive: 0.976,inactive: 0.971
COc1ccc(S(=O)(=O)N(C(C)=O)c2ccccc2/C=C/c2cc[n+]([O-])cc2)cc1,active: 0.827,inactive: 0.908
Cc1nc(-c2cn3c(n2)-c2ccc(-c4cnn(C(C)(C)C(N)=O)c4)cc2OCC3)n(C(C)C)n1 [Taselisib (GDC 0032)],active: 0.731,active: 0.642
O=C(/C=C/c1ccc(CN(CCO)CCc2c[nH]c3ccccc23)cc1)NO [Dacinostat (LAQ824)],active: 0.512,active: 0.481
